Test results as given in PubChem BioAssay AID760 (NMMLSC, 2007).
Hit rate of the full screen: of about 190,000 compounds, about 360 (0.19%) were called active. Inconclusive results, whose numbers are uncertain, are shown with a selection of clear calls.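 How the source made its calls: active means GTP binding activity at least 20 points away from 100%, either lowered or raised; inconclusive means signal likely due to the compound's own green fluorescence; inactive means the rest.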

What follows are compounds tested against Ras-related protein Rab-2A (Canis lupus familiaris) (UniProt P61105) (assay: Rab2 wt fluorescent GTP binding changes, either direction – biochemical, dog, bead-based flow cytometry, multiplex, primary screen (AID 760;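 further: 0% = beads with excess unlabeled GTP and 100% = no-compound control corrected for plate trend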)). Conditions: GST-Rab2 wt beads, Bodipy-GTP binding, at 10 µM.

Compound	GTP binding activity
COc1ccc(NC(=O)c2cc3c(-c4ccc(OC)c(OC)c4)nn(C)c3s2)cc1OC	inconclusive: 86%
COc1ccc(CNC2CCCCC2)cc1	inconclusive: 105%
CC1CN(C(=O)CCN2C(=O)c3ccccc3C2=O)CC(C)O1 (configuration not stated)	inactive: 96%
CCOC(=O)C1(Cc2ccc(OC)cc2)CCN(C(=O)c2cc3ccccc3[nH]2)CC1	inconclusive: 89%
Nc1nc(SCc2ccc(Cl)c(Cl)c2)n[nH]1	inconclusive: 99%
Cc1ccc(SC(CC(=O)c2ccc(C(C)(C)C)cc2)C(=O)O)cc1 (configuration not stated)	active: 78%
COc1ccccc1/C=C/C(=O)NNC(=O)c1cccs1	inactive: 95%
CCOc1ccccc1OCCCOc1ccc(C)cc1Cl	inconclusive: 90%
O=C(CCCSc1nc2ccccc2c(=O)[nH]1)c1ccc(F)cc1	inactive: 95%
COCCNC(=S)N/N=C(\C)c1cccc(OC)c1	inactive: 98%
COCCNC(=S)NNC(=O)c1ccc(-n2cnnn2)cc1	inactive: 103%
CCOC(=O)c1c(-c2ccc(C)cc2)csc1NC(=O)/C(C#N)=C/c1ccc(O)c(OC)c1	inconclusive: 128%
CC1CCN(S(=O)(=O)c2ccc(C(=O)NNC(=O)C3CC3)cc2)CC1	inactive: 93%
Cc1ccc(NCc2nnc(SCCN3CCCCC3)n2CC2CCCO2)c(C)c1 (configuration not stated)	inactive: 96%
CCOC(=O)c1c(-c2cccs2)csc1NC(=O)c1ccncc1	inconclusive: 107%
CCc1c(O)nc(SCC(=O)N(CC)CC)[nH]c1=O	inactive: 94%
O=C(Oc1ccc2c(c1)OCO2)c1ccc(Br)c(S(=O)(=O)N2CCOCC2)c1	inconclusive: 91%
Cc1ccc(N2CCN(C(=O)N3CCOCC3)CC2)c(C)c1	inconclusive: 91%
CC(C)C12CN3CC(C(C)C)(CN(C1)C3c1ccco1)C2=O (configuration not stated)	inconclusive: 110%
O=C(c1cc[n+]([O-])cc1)N1CCc2c([nH]c3ccccc23)C1c1ccccc1Cl (configuration not stated)	inconclusive: 97%
Cc1ccc(Oc2nc(-c3cccnc3)nc3ccccc23)c([N+](=O)[O-])n1	inconclusive: 92%
O=C(O)c1ccccc1C(=O)OCc1ccccc1	active: 134% [activator]
COCCNC(=O)Cn1c(=O)n(Cc2ccco2)c(=O)c2ccccc21	inconclusive: 102%
CC(C)CCNC(=O)CCCOc1cc(=O)n(C)c2ccccc12	inconclusive: 92%

Compound	GTP binding activity
O=C(CCn1nc(-c2ccc(Cl)cc2)ccc1=O)N1CCN(c2ccccn2)CC1	inconclusive: 108%
Nc1nc(SCC(=O)c2cc(F)ccc2F)n[nH]1	inconclusive: 93%
O=C(CCNC(=O)c1ccccc1)Nc1cccnc1	inactive: 98%
COc1ccc2nc(C)cc(SCC(=O)N/N=C/c3ccc(O)c(O)c3)c2c1	active: 68%
O=C(CSc1ncn[nH]1)N1CCOCC1	inactive: 96%
O=C(/C(C=Nc1cc2c(oc1=O)CCCC2=O)=C(\O)c1ccccc1)c1ccccc1	inactive: 98%
O=[N+]([O-])c1cccc(Nc2nc(Cl)nc(Cl)n2)c1	inconclusive: 86%
CCOc1ccc(N2CC(C(=O)Nc3ccc4c(c3)OCO4)CC2=O)cc1 (configuration not stated)	inconclusive: 94%
COc1cccc(=O)c2c(C)n(-c3cc(C)cc(C)c3)c(C)c12	inconclusive: 104%
Cc1cc(N2CCC(C)CC2)nc(NCc2ccccc2)n1	inactive: 100%
Cc1cccc(C)c1NC(=O)CNCC(=O)N(C)C	inactive: 102%
CC(=O)N1CC(=O)N(Cc2ccccc2)/C(=C/c2ccccc2)C1=O	inactive: 99%
CCCC(=O)N(c1ccc(OC)cc1)C1C=CS(=O)(=O)C1 (configuration not stated)	inconclusive: 105%
CCN(CC)S(=O)(=O)c1ccc(C(=O)Nc2nnc(C(C)C)s2)cc1	inconclusive: 101%
CCc1sc(C(=O)NCc2ccccc2)cc1C	inconclusive: 91%
Cc1cc(N2CCN(c3ccccn3)CC2)n2c(nc3ccccc32)c1C#N	inconclusive: 86%
COc1ccc(CNc2nc3c(c(=O)n(Cc4ccc(Cl)cc4)c(=O)n3C)n2C)cc1	active: 78%
Cc1c(NC(=O)c2nn3c(c2Br)NC(c2ccccc2)CC3C(F)(F)F)c(=O)n(-c2ccccc2)n1C (configuration not stated)	inactive: 99%
COc1ccc(C(=O)N[C@H](C(=O)OCc2cc(=O)oc3cc(C)ccc23)C(C)C)cc1	active: 31%
COc1ccc(Br)cc1/C=N/NC(=O)c1cccc(S(=O)(=O)N2CCOCC2)c1	inconclusive: 91%
Cc1nc2c(-c3ccc(Cl)cc3)c(C)[nH]n2c(=O)c1Cc1ccccc1	inconclusive: 75%
COc1cc(C(=O)Nc2nc(-c3cccs3)cs2)cc(OC)c1OC	inconclusive: 92%
O=C(CNC(=O)c1cccs1)OCC(=O)c1ccc(Br)cc1	inconclusive: 97%
